According to PubChem BioAssay AID1508624 (National Center for Advancing Translational Sciences (NCATS), 2021):
About 120 (0.25%) of roughly 48,000 compounds were called active. Inconclusive results (about 4%) are left out. Calls follow the shape of the dose curve; as a rule, active = well fitted activation curve with a large enough effect; inconclusive = small, poorly fitted or top-dose-only effect, or another doubt; inactive = no such curve, though single readings can be large or run the other way. Some of the results follow.

Assay: Primary qHTS for Identification of Small Molecule Activators of Huntingtin-Antisense Promoter Activity; also: nearly all actives have a fitted effect of over 55% in size
Settings: HEK293 HTT-AS promoter firefly luciferase reporter, 24 h; series mostly up to 57.5 µM; activity change, positive = activation: at the top concentration
Outline: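 HEK293 luciferase promoter-reporter cells (2,500/well) plated 24 h, then compounds added at up to 57.5 uM final for 24 h at 37 °C. Firefly luminescence by Dual-Glo, normalized to vehicle (0%) and zero RLU (-100%).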

Activity change, positive = activation, inactive:
Cc1cc(OCC(=O)Nc2ccc(C(=O)OC3CCCCC3)cc2)ccc1Cl -6.94%
O=C(Nc1cn[nH]c1-c1nc2ccc(CN3CCOCC3)cc2[nH]1)NC1CC1 -34.5%
COc1ccc(C(=O)NCC(=O)OCc2cc(=O)n3nc(C4CCCCC4)sc3n2)cc1 3.91%
Cc1c(N(C)CS(=O)(=O)O)c(=O)n(-c2ccccc2)n1C -6.44%
Cc1ccccc1-c1nc(CS(=O)(=O)CC(=O)NCCCN2CCN(C)CC2)c(C)o1 -22.4%
COc1ccc(NC(=O)CSc2nncn3c2cc2occc23)c(OC)c1 -13.1%
COc1ccc(-n2nnc(-c3nc(-c4ccc5c(c4)OCO5)no3)c2C)cc1Cl -1.3%
O=C(Cn1c(=O)n(Cc2ccco2)c(=O)c2ccccc21)Nc1cccc(F)c1 -21.9%
COc1ccc(NC(=O)Cn2c(=O)n(Cc3ccco3)c(=O)c3sc4ccccc4c32)cc1OC -14.7%
CCOc1cc(C#N)c(NC(=O)c2ccc(OC)c(S(=O)(=O)N3CCCCC3)c2)cc1OCC -24.1%
CC(=O)c1ccc(NC(=O)c2cnc(N3CCCC3)nc2C)cc1 -0.981%
Cc1ccc(-n2c(-c3ccc(Br)cc3)nc3c(cnn3-c3ccccc3)c2=O)cc1 -14.3%
CCc1ccccc1NC(=O)Cn1c(=O)n(-c2ccccc2)c(=O)c2oc3ccccc3c21 -4.45%
Cc1c2cnn(-c3ccccc3)c(=O)c2c(C)n1CC(=O)Nc1ccccc1Br -13%
COc1ccccc1N1CCN(S(=O)(=O)c2ccc(-c3coc(C)n3)cc2)CC1 -13.7%
O=C(C1CCCCC1)N(Cc1cccnc1)c1nc2ccc(Cl)cc2s1 -2.9%
O=C(Nc1nnc(S(=O)(=O)N2CCCc3ccccc32)s1)c1ccc(Cl)cc1 -56.6%
CCN(C(=O)CSc1nc(-c2ccc(C(C)C)cc2)no1)c1ccccc1 -21.9%
COc1ccc2c(c1)CC(C(=O)Nc1ccc(Br)c(C)c1)CO2 (stereo unspecified) -19.2%
Cc1ccc2c(CNCCc3ccco3)c(C(=O)O)n(Cc3ccc(F)cc3)c2c1 -21.3%
CCOc1ccc(CN(CCc2ccc3c(c2)OCO3)Cc2cc(OC)cc(OC)c2)cc1 -14.5%
COc1ccc(NC(=O)CCCc2nnc3n(C(C)C)c(=O)c4sccc4n23)cc1Cl 1.57%
Cc1cc(=O)[nH]c2nnc(SCc3cccc(C(F)(F)F)c3)n12 -13.4%
CCOc1ccc(NC(=O)Cn2cc(C(=O)C3CC3)c3ccccc32)cc1 -17.7%
CCN1CCC(N(Cc2ccc(F)cc2)C(=O)Nc2ccc(C)c(F)c2)CC1 -7.96%
CC(C)c1ccc(NC(=O)Cn2nnc(C(=O)NCCc3ccccc3)c2N)cc1 -15.3%
COc1cc(Cl)c(NC(=O)CN2C(=O)c3cccnc3Sc3ccccc32)c(OC)c1 -26.3%
COc1ccc(NC(=O)C(Cc2ccccc2)NS(=O)(=O)c2ccc3c(c2)oc(=O)n3C)c(OC)c1 (stereo unspecified) -12%
Cc1nc(N2CCOCC2)c2c(C(=O)N3CCN(c4cccc(C(F)(F)F)c4)CC3)c(C)oc2n1 -16.4%
Cc1nc2ccc(S(=O)(=O)NCC(=O)NCc3ccc(Cl)cc3)cc2s1 -17.7%
COc1ccccc1N1CCN(c2ncc3c(n2)CCN(Cc2ccccc2C)C3)CC1 -6.92%
Cc1ccc(OCC(=O)OCc2cc(=O)n3ccsc3n2)cc1C 11.1%
Cc1nn(-c2ccccc2)c(-n2cccc2)c1C(=O)NCCCN1CCN(c2ccccc2F)CC1 -33.1%
COc1ccc(OC(=O)c2cc(-c3ccc4c(c3)OCCO4)on2)cc1 3.91%
CCOc1ccc(NC(=O)Cn2c(=O)nc(-c3ccccc3)c3ccccc32)cc1 5.3%
Cc1ccc(C)c(NC(=O)CSc2cn(CC(=O)N3CCCCC3)c3ccccc23)c1 -22.1%
CCOC(=O)c1ccc(NC(=O)CCc2c(C)nc3cc(-c4ccc(OC)cc4OC)nn3c2C)cc1 -14.7%
CC(C)Oc1ccc(C(=O)N2CCC(c3nc4ccccc4s3)CC2)cc1 -7.7%
COc1cc(C(=O)Nc2ccc(-c3nc4cc(C)c(C)cc4o3)cc2)cc(OC)c1OC 24.8%
CC1=C(C(=O)NCc2cccc(Cl)c2)C2(CCCCCC2)OC1=O -34%
CCOC(=O)c1c(C)oc2nc(C)nc(NCCc3ccc(OCC)cc3)c12 -32%
CCC(C)NC(=O)Cn1c(=O)n(-c2cc(OC)cc(OC)c2)c(=O)c2ccccc21 (stereo unspecified) -23.6%
CC(=O)Nc1ccc(S(=O)(=O)N2CCC(n3c(C)nc4cccnc43)CC2)cc1 -20.5%
O=C(Cn1c(=O)n(Cc2ccco2)c(=O)c2sc3ccccc3c21)Nc1ccc(F)cc1F -11.5%
COc1ccc(C(=O)N(Cc2ccco2)Cc2ccccc2F)cc1Cl -36.8%
COc1ccc(-c2cc(C(F)(F)F)c(C#N)c(SCC(=O)Nc3cccc(C)c3)n2)cc1 -6.79%
O=C(NCC(c1ccco1)S(=O)(=O)c1ccc(Cl)cc1)c1ccc(C(F)(F)F)cc1 (stereo unspecified) -23.5%
Cc1ccc(Cn2c(SCc3ccc(C(=O)O)cc3)nc3cccnc32)cc1 9.14%
COc1cccc(CC(=O)Nc2c(C(=O)N3CCN(c4ccccc4)CC3)oc3ccccc23)c1 -34.2%
O=c1[nH]c(=O)n(C2CCCO2)cc1F (stereo unspecified) -0.821% [at 116 µM, percent change from vehicle, -100% = no light]
CCOc1ccc(CCNC(=O)c2ccc3nc(N4CCC(C)CC4)sc3c2)cc1OCC -77%
CCN(CCCNC(=O)CN1N=C(c2ccccc2)CCC1=O)c1cccc(C)c1 -20.7%
CCC(C)n1c(=O)c2sccc2n2c(CCCC(=O)Nc3ccc(F)cc3)nnc12 (stereo unspecified) -13.5%
CSc1ncc(Cl)c(C(=O)Nc2c(C(=O)c3ccc(C)cc3)oc3ccccc23)n1 -25.9%
CC1CCN(S(=O)(=O)c2ccc3[nH]ccc3c2)CC1 -18.2%
O=C1NC(NS(=O)(=O)c2ccccc2)(C(F)(F)F)C(=O)N1CCc1ccccc1 (stereo unspecified) -17.8%
CCOc1ccc(-c2cc3nc(C4CCN(C(=O)OC(C)(C)C)CC4)c(C(=O)Nc4cccc(Cl)c4C)cn3n2)cc1 14.3%
Cn1cc(CCCC(=O)NCc2ccc(F)cc2)c2ccccc21 -11.3%
CC(NCCC(c1ccccc1)c1ccccc1)c1ccccc1 (stereo unspecified) -28.8%
O=C(CCC(=O)N1CCOc2ccccc21)NCc1cccs1 7.37%
Cc1ccc2[nH]c3c(=O)n(CC(=O)N4CCN(c5ccccc5F)CC4)ncc3c2c1 -8.04%
O=S(=O)(NCCc1nnc2ccc(SCc3cccc(Cl)c3)nn12)c1ccccc1 -25.6%
CC(=O)N1CCCc2cc(S(=O)(=O)N3CCCC(C(=O)Nc4ccc(F)cc4F)C3)ccc21 (stereo unspecified) -50.1%
COc1ccc(Cn2c(CNC(=O)Cc3ccc(OC)c(OC)c3)nc3cccnc32)cc1 -15.4%
Cc1ccc(NC(=O)CSc2nc(=O)n(Cc3ccncc3)c3c2CCC3)cc1Cl -11.5%
CCOc1cc(CNC(=O)CSc2n[nH]c(-c3ccccc3)n2)cc(OCC)c1OCC -31.7%
COc1ccc(Nc2ncc(C(=O)Nc3cccc(OC)c3)c3ccccc23)cc1 5.31%
Cc1ccc(Cl)cc1N(C)C(=O)c1sc2nc3n(c(=O)c2c1C)CCCC3 -22.1%
COC(=O)c1cc(NC2(c3ccccc3)C(=O)c3ccccc3C2=O)cc(C(=O)OC)c1 3.59%
Cc1ccccc1-n1c(SCC(=O)c2ccccc2)nnc1-c1ccc(F)cc1 -26.3%
Cc1ccc(NC(=O)NC(C)c2c(-n3cccc3)sc(C)c2C)c(C)c1 (stereo unspecified) -34.6%
COc1ccc(NC(=O)c2ccco2)cc1NC(=O)c1cccc(C)c1OC -17%
O=C(Nc1ccccc1)C1CCN(S(=O)(=O)c2ccc3c(c2)CCCN3C(=O)C2CCC2)CC1 -16.8%
COc1ccc(Cn2c(CCC(=O)Nc3cc(C)cc(C)c3)nc3cccnc32)cc1 -28.1%
Cc1ccc2c(CN3CCN(c4ccc(Cl)cc4)CC3)cc(=O)oc2c1 -5.86%
Cc1ccc(CNC(=O)CCCCCn2c(=O)c3sccc3n(CC(=O)C(C)(C)C)c2=O)cc1 -10.3%
OC1C(O)C(O)C(O)C(O)C1O (stereo unspecified) -7.79%
Cc1ccc(-c2nc3c4ccccc4n(CC(=O)N4CCN(c5ccc(F)cc5)CC4)c(=O)n3n2)cc1 -7.45%
Cc1cc(C)cc(Nc2cc(C)nc3nc(-c4ccco4)nn23)c1 -25.6%
CCOC(=O)c1c(NC(=O)c2cc(-c3ccc(Cl)cc3)on2)sc(C)c1C -2.76%
CCC(C)NC(=O)Cn1c(-c2cccs2)cc2cc(Cl)ccc21 (stereo unspecified) -8.18%
Cc1cc(N2CCC(C(=O)NCCC(C)C)CC2)n2nc(C)c(-c3ccc(Cl)cc3)c2n1 -11.4%
Cc1ccc(CN(C(=O)c2ccccc2[N+](=O)[O-])c2ccccn2)cc1 -9.51%
CC(C)(C)c1ccccc1NC(=O)c1cnn2c(C(F)F)cc(-c3ccccc3)nc12 -1.2%
COc1ccccc1NC(=O)CSc1oc(-c2ccc(F)cc2)nc1S(=O)(=O)c1ccc(Br)cc1 7.92%
Cn1c(=O)c2c(SCC(=O)Nc3ccc(F)cc3F)nc(C3CCCC3)nc2n(C)c1=O -1.74%
CCOC(=O)c1cnc(N2CCN(c3ccc(C)cc3C)CC2)c2ccccc12 -10.1%
CSc1cccc(NC(=O)CN2C(=O)COc3ccc(S(=O)(=O)N4CCC(C)CC4)cc32)c1 -26.2%
Cc1ccc(C)c(NC(=O)Cn2ccn(-c3ccc(F)cc3)c(=O)c2=O)c1 -2.17%
C[C@]12CC[C@@H]3c4ccc(O)cc4C[C@@H](CCCCCCCCCS(=O)CCCC(F)(F)C(F)(F)F)[C@H]3[C@H]1CC[C@H]2O (stereo partly specified) -5.54%
Cc1ccccc1CNC(=O)c1ccc2[nH]c(C)c(C)c2c1 -9.63%
Cn1nnnc1SCCCNCc1cc(Cl)ccc1OCc1ccccc1F -24.4%
Cc1cccc(N2CCN(S(=O)(=O)c3c(C(=O)N4CCC(C)CC4)c(C)n(C)c3C)CC2)c1C -32.7%
Cc1ccc(NC(=O)Cn2cnc3sc(C)c(S(=O)(=O)N4CCN(c5ncccn5)CC4)c3c2=O)cc1F -7.07%
COC(=O)c1ccc(NC(=O)CC2C(=O)N(c3ccccc3)C(=O)N2Cc2ccco2)cc1 (stereo unspecified) -1.97%
COc1ccc(NC(=O)CSC2=Nc3ccccc3C3=NC(CC(=O)NCc4ccc5c(c4)OCO5)C(=O)N23)cc1 (stereo unspecified) 6.76%
